For 27 variants, nonsense suppression results are on record in the RNAGym collection of RNA variant scans (doi:10.1101/gad.245936.114).

Sequences and labels used below:
B1: tRNA (parent)
chain: CUCUCGGUAGCCAAGUUGGUUUAAGGCGCAAGACUUUAAUUUAUCACUACGAAAUCUUGAGAUCGGGCGUUCGACUCGCCCCCGGGAGAUUUUUUCCUCGAGCAA

This sample is rich in variants without activity.

In this series the parent is B1. Description: nonsense suppression (GFP-seq) (ratio to wild type); higher = more function; SUP4oc tRNA, yeast GFP reporter sort-seq. An outline of the steps:
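Each variant's nonsense suppression (GFPSEQ) is a cell-share-weighted bin median GFP/RFP relative to the unmutated parent tRNA. Yeast with genome-integrated tRNA variants from a ~3% random-mutation library, a galactose-driven GFP ochre reporter and RFP were grown in raffinose/galactose medium with 80 mg/L adenine, then sorted into GFP/RFP bins for Illumina sequencing. Variants needed ≥100 reads and ≥30 cells.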
For the variant CUCUCGGUAGCCAAGUUGGUUUAUGGCGCAAGACUUUAAUUUAUCACUACGAAAUCUUGAGAUCGGGCGUUCGACUCGCCCCCGCGAGAUUUUUUCCUCGAGCAA [A24U G85C], the nonsense suppression was ≤ 0.026.

For the variant GUCUCGGUAGCCAAGUUGGUUUAAGGCGCAAGGCUUUAAUUUAUCACUACGAAACCUUGAGAUCGGGCGUGCGACUCCCCCCCGGGAGAUUUUUUCCUCGAGCAA [C1G A33G U55C U71G G78C], the nonsense suppression is ≤ 0.026.

On to CUCUCGGUAGCCAAGUUGGUUUAAGGCGCAAGACUUUAAUUUAUCACUACGAAAUGUUGAGAUCGGGCGUGCGACUCGCCCCCGGGAGAUUUUUUCCUCGAGCAA [C56G U71G], for which the nonsense suppression is ≤ 0.026.

Consider CUCUCGUUAACCAAGUUGGUUUAAGGCGCAAGACUUUAAUUUAUCACUACGAAAUCUUGAGAUCGGGCGUUCGACUCGCCCCCGCGAGAUUUUUUCCUCGAGCAA [G7U G10A G85C], for which the nonsense suppression was ≤ 0.026.

For the variant CUCUCGGUACCCACGUUGGUUUAAGGCGCAAGCCUUUAAUUUAUCACUACGAAAUCUUGAGAUCGGGAGUUCGACUCUCCCCCGGGAGAUUUUUUCCUCGAGCAA [G10C A14C A33C C68A G78U], the nonsense suppression was ≤ 0.026.

For CUCUUGGUAGCCAAGUUGGUUUAAGGCGCAAGAAUUUAAUUUAUCACUACGAAAUCUUGAGAUUGGGCGUUCGACUCGCCCCCGGGAGAUUUUUUCCUCGAGCAA [C5U C34A C64U], the nonsense suppression was ≤ 0.026.

Consider CGCUCGGUAGCCAAGUUGGUUUAAGCCGCAAGACUUUAAUUUAUCACUACGAAAUCUUGAGAUCCGGCGUUCGACUUGCCCCCGGGAGAUUUUUUCCUCGAGCAA [U2G G26C G65C C77U], for which the nonsense suppression is ≤ 0.026.

CGCUCGGUAUCCAAGUUGGUUUAAGGCGCAAGACUUUAAUUUAUCACUACGAAAUCUUGAGAGCGGGCGUUCGACUCGCCCCCCGGAGAUUUUUUCCUCGAGCAA [U2G G10U U63G G84C]: the nonsense suppression was ≤ 0.026.

In the case of CUCUCGGUAGCCAAGUUGGUUUAAGGGGCAUGACUUUAAUUUAUCACUACGAAAUCUUGAGAUCGGGCGUUCGACUCGCCCCCGGGAUAUUUUUUCCUCGAGCAA [C27G A31U G88U], the nonsense suppression is ≤ 0.026.

For CUCUCGGUAGCCAAGUUGGUUUAAGGCGUAAGACUUUAAUUUAUCACUACGAAAUCUUGAAAUCGGGCGUUCGACGGGCCCCCGGGAGAUUUUUUCCUCGAGCAA [C29U G61A U76G C77G], the nonsense suppression was ≤ 0.026.

Consider CUCUCGGUAGCCUAGUUGGAUUAAGGCGCAAGACUUUAAUUUAUCACUACGAAAUCUUGAGAUCGGGCGUUCGACUCGCCCCCGGGAGAUUUUUUCCUCGAGCAA [A13U U20A], for which the nonsense suppression was found to be 0.189.

Regarding CUCUCGGUAGCCAAGUUGGUUUAACGCCCAAGACUUUAAUUUAUCACUACGAAAUCUUGAGAUCGGGCGUUCGACUCGCCCCCGGGAGAUUUUUUCCUCGAGCAA [G25C G28C], the nonsense suppression was ≤ 0.026.

In the case of CUCUCGGGAGCCAAGUUGGUUUGAGGCGCAAGACUUUAAUUUAUCACUACGAAAUCUUGAGAUCGGGCGUUCGACUCGCCCGCGGAAGAUUUUUUCCUCGAGCAA [U8G A23G C82G G86A], the nonsense suppression is ≤ 0.026.

Consider CUCUCGGUAGCCAAGUUGGUUUAAGCCGCAAGGCUUUAAUUUAUCACUACGAAAUCUUGAGAUCGGGCGUUCGACUCGCCCCCGGGAGAUUUUUUCCUCGAGCAA [G26C A33G], for which the nonsense suppression was ≤ 0.026.

In the case of CUCUCGGUAGCCAAGUUGGUUUUAGCCGCAAGACUUUAAUUUAUCACUACGAAAUCUUGAGAUCGGGCGUUCGACUCGCCCCCGGGAGAUUUUUUCCUCGAGCAA [A23U G26C], the nonsense suppression was ≤ 0.026.

With UGCUCGGUAGCCAAGUUGGGUUAAGGCGAAAGACUUUAAUUUAUCACUACGAAAUCUUGAGAUCGGGCGUUCGACUCGCCCCCGGGAGAUUUUUUCCUCGAGCAA [C1U U2G U20G C29A], the nonsense suppression is ≤ 0.026.

Regarding CUCUCGGUAGCCCAGUUGGUUUAAGGGGCAAGACUUUAAUUUAUCACUACGAAAUCUUGAGAUCGGGCGUUCGACUCUCCCCCGGGAGAUUUUUUCCUCGAGCAA [A13C C27G G78U], the nonsense suppression is ≤ 0.026.

Consider CACUCGGUAGCCAAUUUGGUUUAAGGCGCAAGACUUUAAUUUAUCACUACGAAAUCUUGAGAUCGGGCGUUCGACUCCCCCCCGGGAGAUUUUUUCCUCGAGCAA [U2A G15U G78C], for which the nonsense suppression was ≤ 0.026.

In the case of CUCUCGGUAGCGAAGGUGAUUUAAGGCGCAAGACUUUAAUUUAUCACUACGAAAUCUUCAGAUCGGGCGUUCGACUCGCCCCCGGGAGAUUUUUUCCUCGAGCAA [C12G U16G G19A G59C], the nonsense suppression was ≤ 0.026.

For the variant CUCUCGCUAGCCACGUUGGUUUAAGGCGCAAGACUUUAAUUUAUCACUACGAAAUCUUGAGAUCGGGCGUUCGACUCGCCCCCGGGAGAUUUUUUCCUCGAGCAA [G7C A14C], the nonsense suppression is ≤ 0.026.

Regarding CUUUCGGUAGCCAGGUUGGUUUAAGGCGCAAGACUUUAAUUUAUCACUACGAAAUCUUGAGAUCGGGCGUUCGACUCGCCCCCGGGAGAUUUUUUCCUCGAGCAA [C3U A14G], the nonsense suppression was ≤ 0.026.

For the variant CACUCGUUAGCCAAGUUGGUUUAAGUCGCAGGACUUUAAUUUAUCACUACGAAAUCUUGAGAUCCGGCGUUUGACUCGCCCCCGGGAGAUUUUUUCCUCGAGCAA [U2A G7U G26U A31G G65C C72U], the nonsense suppression is ≤ 0.026.

As to CUCUCGGUAGCCAAGUUGGUUUAAGGCGCAAGACUUUAAUUUAUCACUACGAAAUCUUGAGAUCGGGCGUUCGACUCGCCACCGGGUGAUUUUUUCCUCGAGCAA [C81A A87U], the nonsense suppression is ≤ 0.026.

Take CUCUCGGUAGCCAAGUUGGUUUAAGGCGCAAGACUUUAAUUUAUCACUACGAAAUCUUCAGAUCGGGCGUUCGACACGACCCCGGGAGAUUUUUUCCUCGAGCAA [G59C U76A C79A]: the nonsense suppression was ≤ 0.026.

As to CUCUCGGUAGCCAAGUUGGUUUAAGGCGCAAGACUUUAAUUUAUCACUACGAAAUCUUGAGAUCUGGCGUUCGACUCGCCCCCUGGAGAUUUUUUCCUCGAGCAA [G65U G84U], the nonsense suppression was ≤ 0.026.

With AUCUCGGGAGCUACGUUGGUUUAAGGCGCAAGACUUUAAUUUAUCACUACGAAAUCUUGAGAUCGGGCGUUCGACUCGCCCCCGUGAGAUUUUUUCCUCGAGCAA [C1A U8G C12U A14C G85U], the nonsense suppression was ≤ 0.026.

Consider CUCUUGGUAGCCAAGUUUGUUUAAGGCGCAAGACUUUAAUUUAUCACUACGAAAUCUUGAGAUCGGGCGUUCGACUCGCCCCCGGGAGAUUUUUUCCUCGAGCAA [C5U G18U], for which the nonsense suppression was ≤ 0.026.
